Test results taken from the supplement of paper PMC10126150.
Sequences with one replicate were seen in a single cluster, so their values are uncertain.

Tested on: ATP
Test: switch fluorescence ratio, 500 uM ATP over buffer (Cy3 cluster intensity, sum of 5 cycles each) (fold (ratio)); higher = stronger signal-on switching upon ATP binding; sequences stand for … in TCGTCGGCAGCGTCAGATGTGTATAAGAGACAGTTTTTTTTTTTTTTTTTTTTTTTTT…TC
Conditions: aptamer strand: ATP DNA aptamer (quencher-CACCTGGGGGAGTATTGCGGAGGAAGG + anchor), 100 nM annealed; ATP concentration: 500 uM; one replicate
Summary of the method: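 After annealing to 100 nM quencher-labelled ATP aptamer, Cy3-labelled switching-strand clusters on a modified Illumina MiSeq flow-cell were imaged in selection buffer. A second image followed after 15 min with 500 uM ATP at 22 °C, and five such buffer/ATP cycles were done, each separated by NaOH stripping and re-annealing. The fluorescence ratio, averaged per switch-domain sequence, is summed target-cycle over summed buffer-cycle Cy3 intensity per cluster, with clusters outside 100-1000 RFU excluded.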
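Also: ATP exposure 15 min at 22 °C before imaging.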

| Sequence | switch fluorescence ratio |
| --- | --- |
| CAAAGTGTGC | 1.15 |
| CTTGCGTCCA | 1.05 |
| CAATGGTAC | 1.1 |
| ATATTAGAAT | 0.981 |
| CACTGGGGTA | 1.04 |
| AGGTGGTGTA | 1.02 |
| TGATATGGGC | 1.03 |
| GCGGTCCGCT | 0.947 |
| GACGAGAATA | 1.11 |
| GCTAAGAGAG | 1.03 |
| GGTTAGTGGA | 0.96 |
| TCTCGAAGCG | 1.05 |
| GATAAGGGCA | 0.983 |
| TGTCAAGTA | 1.07 |
| AGCTGGTCAA | 1 |
| CATATTAGCT | 0.96 |
| CGCCATCTTT | 1.05 |
| CATGTCCCGT | 0.995 |
| GCACCAGACC | 1.1 |
| ACCTTATGTC | 1.01 |
| ACCCTCTTAG | 1.13 |
| AGTATCGCCC | 0.991 |
| CTCACGGCAC | 2.02 |
| ACCTACAAA | 1.22 |
| GTGGATACCT | 1.12 |
| CTTGGGCCCA | 0.993 |

| Sequence | switch fluorescence ratio |
| --- | --- |
| GGGTCAGCTC | 0.995 |
| TCGAGTCAGA | 1.03 |
| TAGCTTTGGA | 1.04 |
| ACGTGCGCGG | 1.06 |
| AGCAATTCCA | 1.77 |
| TCAGCGCA | 1.54 |
| CTAGCTGATA | 0.932 |
| CGCTTATCTC | 2.01 |
| ACAGATGCTC | 1.05 |
| ATTTGCTTGA | 1.02 |
| GGCTAAATCT | 1.04 |
| TTAGGTATCA | 0.946 |
| TGCTCCTGGA | 1.05 |
| CATATAGGTG | 1.11 |
| TATGGTTTGA | 0.971 |
| CTGTCTCCAT | 1.01 |
| TGTGGCCTGT | 0.997 |
| ATTATGAGTC | 1.04 |
| CGAACCAGCC | 1.73 |
| CTGTCTCGTT | 0.964 |
| AATGTGAGCA | 0.987 |
| TGTATTGTAT | 0.979 |
| ATGCCTAACT | 0.97 |
| CGTGCGCGG | 1 |
| TTTGCGAACC | 1.12 |
| GTTTTAAAAT | 0.964 |

| Sequence | switch fluorescence ratio |
| --- | --- |
| CTATAATTTG | 1.01 |
| TCGAAGGGCA | 1.04 |
| GGAAGAAAAG | 1.02 |
| CGTTTAGGC | 0.961 |
| AATAAATCG | 1.01 |
| TGCGCACCGG | 0.992 |
| TGAAGGGTCC | 0.988 |
| CGATGCAAGA | 5.21 |
| GGAATTGCTT | 0.996 |
| ACGTATGTGG | 1.08 |
| AGGGTGTATG | 1.01 |
| GGTAGGCAAA | 1.02 |
| TTGGTTATC | 0.989 |
| TGCAGGAGGC | 1.08 |
| TATGCTCTG | 0.997 |
| ATGTTTTAGT | 0.964 |
| CTGATTTAAG | 0.994 |
| CCCCCCCTGA | 1.52 |
| ATGGATCCA | 0.994 |
| TACGGCATCG | 1.09 |
| TTCCTCAAGC | 1.06 |
| CCGGGTTTAT | 1.05 |
| TTACTGAC | 1.21 |
| ATCTTAGATT | 1.03 |
| ACAGGGGA | 1.89 |
| ACAAGGACAG | 1.06 |

| Sequence | switch fluorescence ratio |
| --- | --- |
| TGAGTAATAC | 1.5 |
| AGATATATTC | 0.962 |
| CGGCTGAATG | 1.01 |
| TTAGTAACAG | 1 |
| ACTTGAAGCG | 1.01 |
| CAGAGCGTGG | 0.993 |
| TGCTTCGTAT | 1.05 |
| ATGCGGTTTG | 0.994 |
| CACTTCGGCC | 1.07 |
| AGGGATTCGA | 1.02 |
| ACCTATTGCA | 1.07 |
| TTTCCGTGTC | 1.04 |
| TCACTGCACA | 1.55 |
| AGCCGACCGC | 1.35 |
| TGATTTTATC | 1.02 |
| AGCCAGCAGT | 1.1 |
| TTAGTGTGAG | 0.973 |
| GGTAGATATA | 0.971 |
| AATTCATTCT | 1.02 |
| TATCGATGG | 0.999 |
| GGAGCTAGCC | 0.894 |
| TATTTAGG | 0.981 |
| CTATATTTAT | 1.01 |
| TGTAGAGCCT | 1.02 |
| TTTGAGCAA | 1.62 |
| ATGTATCAGA | 1.01 |

| Sequence | switch fluorescence ratio |
| --- | --- |
| GTGTGCCGG | 0.997 |
| TTCTAGGTGT | 1.28 |
| TACCGAATCT | 1.06 |
| AGATGCATT | 0.966 |
| GTAATGTCAC | 1.03 |
| CAGGTAACCG | 0.938 |
| TACAGAGTTC | 1.05 |
| AGGCAGTAGC | 0.98 |
| GTCATCCCG | 0.987 |
| GTCTATGAGG | 0.985 |
| TCCCCTCGGG | 1.03 |
| TGAGGGCGTC | 1.04 |
| TAGCTATATC | 1.74 |
| ACATAAGTGA | 1.02 |
| AGGTAAGGGA | 0.998 |
| CAAAAAGGTA | 0.992 |
| TACCTGATGT | 1.04 |
| CCAACTTGAG | 1.09 |
| ATTTGCGCCC | 1.05 |
| ATGCGTATAA | 1.03 |
| TACCCTGTCA | 1.05 |
| GTATTGGTTT | 0.994 |
| ACTACACTGC | 1.33 |
| GCGGCACG | 0.986 |
| GAGTACCTCA | 0.992 |
| TGAGCGTTCG | 0.99 |

| Sequence | switch fluorescence ratio |
| --- | --- |
| AAACGCATAG | 1.47 |
| CAACCTATGA | 1.05 |
| GATCTCCGTT | 1.33 |
| TAGATGAAG | 0.992 |
| TGTCGTTAAA | 0.991 |
| AACGTTACAT | 1.37 |
| TGGACTGCAT | 1.05 |
| ACGTTCGTGA | 1.02 |
| CTTGTCGAAG | 1.09 |
| ATCCTTTAGG | 1.05 |
| TCATTAAGA | 1.01 |
| GTTGTTGGCG | 1.01 |
| TGAGAATCTG | 1.02 |
| GCGGGGACCA | 1 |
| TACCATGTTG | 1.04 |
| TGCGTGTTGG | 1.01 |
| AAGACGCCAC | 1.74 |
| AGCAGCAGCT | 1.03 |
| AACATGCATG | 1.04 |
| GTAATATGGT | 0.991 |
| GCCTCAATCG | 1.07 |
| ATTTCCCGCC | 1.3 |
| CATAACGTCC | 1.09 |
| GTCCCATGTT | 1.02 |
| ATATGCACAC | 1.17 |
| ACAATGTTGT | 0.956 |

| Sequence | switch fluorescence ratio |
| --- | --- |
| TGACTTTAGC | 1.08 |
| GCATCGGCTC | 1.03 |
| TCGCGTTACA | 1.06 |
| TGGATAGCGA | 1 |
| TTCTTCCGAT | 1.61 |
| GTTGATTTAG | 1.01 |
| TCAGGCGATT | 1.33 |
| GAGGAAAGTT | 1.02 |
| GATTGCATAG | 1.01 |
| ATTTTGCATC | 0.971 |
| TTTGGCAATA | 1.25 |
| TAGAGGGGCC | 1.02 |
| CTAATAAATG | 0.979 |
| ATGTACGAAG | 1.01 |
| ACGTCCAGTG | 1.17 |
| TTCGAGGCCA | 1.13 |
| AGGATTCAT | 0.979 |
| CTATACGAT | 1.01 |
| TCAAGCTCAG | 1.02 |
| GGTAGGGGAG | 0.971 |
| AGTGTGGGTG | 0.997 |
| TTTGGCGGCT | 1.01 |
| CGAAGATGCC | 1.01 |
| AGTATACTTA | 1.01 |
| AGCCCCCGGC | 0.99 |
| CTTACTTGGC | 1.1 |

| Sequence | switch fluorescence ratio |
| --- | --- |
| GTTTGGCTTA | 0.989 |
| CGAAAAATTC | 2.08 |
| GCCGCGGGGC | 1.08 |
| AAGGACCGCA | 1.25 |
| ATATACGTCC | 1.13 |
| CGCAATGATC | 6.11 |
| GACGTCAGGT | 0.976 |
| TAGTTCAATC | 1.05 |
| AGTTTGGACT | 0.999 |
| GCATCGGAGG | 1.03 |
| TTCGGTGGCA | 0.961 |
| AGTTATGGTT | 0.927 |
| AAACATGTAG | 0.998 |
| CCATATCGGT | 1.01 |
| GTGGCGAGGT | 1.04 |
| AGAATGGCTA | 0.968 |
| CCACGAATGG | 1.03 |
| AGAATTAATT | 0.99 |
| TATTCGGAGA | 0.988 |
